By IC50 is meant the dose at which the fit gives 50% viability; a fit beyond the top or the lowest dose is shown as a bound at that dose. For AUC the same curve is integrated over the 256-fold range of doses and scaled to a fraction; the more sensitive the line, the further below 1. For part of these data: Any top dose called inferred comes from the curve model; the source does not state it. For part of these data: Where an entry number is given, a second screen of the drug exists; the two often differ.
Columns and labels:
Experiment in all cases: Viability of human cancer cell lines after 72 h of drug (GDSC screen)
[1] = compound: O=c1cc(-c2cccc3c2Sc2ccccc2S3)oc(N2CCOCC2)c1 [KU-55933]; conditions: top dose 10 µM
Method: (§1)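 Human cancer cell lines in 384-well plates, medium with 10% serum, drug for 72 h over a 256-fold dose range (nine 2-fold or five 4-fold steps up to the top dose). Adherent lines were fixed and stained with the nucleic acid dye Syto60, suspension lines read with resazurin; signal relative to control wells, capped at 0 and 100%. One two-parameter sigmoid per drug and line, fitted in a mixed model over all curves with the slope shared within a line.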

[2] = compound: Cc1cnc(-c2cnc(NCCNc3ccc(C#N)cn3)nc2-c2ccc(Cl)cc2Cl)[nH]1 [CHIR-99021]
Method: as §1

[3] = compound: Cc1ccc(F)c(NC(=O)Nc2ccc(-c3cccc4[nH]nc(N)c34)cc2)c1 [ABT-869]; conditions: top dose 1.024 µM; top dose inferred
Method: as §1

[4] = compound: CCn1c(-c2nonc2N)nc2cnc(Oc3cccc(NC(=O)c4ccc(OCCN5CCOCC5)cc4)c3)cc21 [GSK269962A]; conditions: top dose 5 µM; screen: GDSC drug entry 1192; top dose inferred
Method: as §1

[5] = compound: COc1cc(N2CCC(O)CC2)ccc1Nc1cc(Nc2ccccc2S(=O)(=O)C(C)C)c2cc[nH]c2n1 [MPS-1-IN-1]; conditions: top dose 20 µM; top dose inferred
Method: as §1

[6] = compound: COc1cc(O)c2c(c1)/C=C/C[C@H](O)[C@H](O)C(=O)/C=C\C[C@H](C)OC2=O [(5Z)-7-Oxozeaenol]; conditions: top dose 10 µM; top dose inferred
Method: as §1

[7] = compound: COc1nc(C)cnc1NS(=O)(=O)c1cccnc1-c1ccc(-c2nnco2)cc1 [Zibotentan]; conditions: top dose 20 µM; top dose inferred
Method: as §1

[8] = compound: C/C=C(/C)C(=O)O[C@H]1C(C)=C2[C@H]([C@@H]1OC(=O)CCCCCCC)[C@@](C)(OC(C)=O)C[C@H](OC(=O)CCC)[C@@]1(O)[C@H]2OC(=O)[C@@]1(C)O [Thapsigargin]; conditions: top dose 0.512 µM; top dose inferred
Method: as §1

[9] = compound: Nc1ccn([C@@H]2O[C@H](CO)[C@@H](O)[C@@H]2O)c(=O)n1 [Cytarabine]; conditions: top dose 2 µM
Method: as §1

[10] = compound: C[C@]1(c2nc3c(C(N)=O)cccc3[nH]2)CCCN1 [ABT-888]; conditions: top dose 5 µM; top dose inferred
Method: as §1

[11] = compound: C=CC(=O)Nc1cc(-n2c(=O)ccc3cnc4ccc(-c5cn[nH]c5)cc4c32)ccc1C [QL-X-138]; conditions: top dose 10.24 µM; top dose inferred
Method: as §1

[12] = compound: COc1cc2ncnc(-n3nc(-c4ccccn4)nc3N)c2cc1OC [CP466722]; conditions: top dose 16 µM; top dose inferred
Method: as §1

[13] = top dose 2.56 µM, screen: GDSC drug entry 154
[14] = top dose 10 µM, screen: GDSC drug entry 1241, top dose inferred

Row | Cell Line | AUC [1] | IC50 [1] [µM] | AUC [2, 13] | IC50 [2, 13] [µM] | AUC [2, 14] | IC50 [2, 14] [µM] | AUC [3] | IC50 [3] [µM] | AUC [4] | IC50 [4] [µM] | AUC [5] | IC50 [5] [µM] | AUC [6] | IC50 [6] [µM] | AUC [7] | IC50 [7] [µM] | AUC [8] | IC50 [8] [µM] | AUC [9] | IC50 [9] [µM] | AUC [10] | IC50 [10] [µM] | AUC [11] | IC50 [11] [µM] | AUC [12] | IC50 [12] [µM]
1 | JHH-4 (liver, adherent) | 0.902 | > 10 | 0.984 | > 2.56 | 0.886 | > 10 | 0.981 | > 1.02 | 0.935 | > 5 | 0.946 | > 20 | 0.818 | 5.64 | 0.987 | > 20 | 0.36 | 0.0131 | 0.93 | > 2 | 0.985 | > 5 | 0.883 | > 10.2 | – | –
2 | NCI-H838 (lung adenocarcinoma, adherent) | 0.92 | > 10 | – | – | – | – | 0.984 | > 1.02 | 0.827 | 3.24 | 0.957 | > 20 | 0.758 | 3.59 | – | – | 0.34 | 0.0113 | 0.714 | 0.519 | 0.987 | > 5 | 0.979 | > 10.2 | 0.967 | > 16
3 | NCI-H1563 (lung adenocarcinoma, adherent) | 0.955 | > 10 | – | – | – | – | 0.977 | > 1.02 | 0.97 | > 5 | 0.89 | > 20 | 0.742 | 3.56 | 0.983 | > 20 | 0.735 | 0.173 | 0.796 | 1.14 | 0.984 | > 5 | 0.693 | 2.49 | 0.71 | 4.44
4 | NCI-H1703 (lung adenocarcinoma, adherent) | 0.976 | > 10 | – | – | – | – | 0.742 | 0.374 | 0.853 | > 5 | 0.922 | > 20 | 0.485 | 0.563 | 0.981 | > 20 | 0.362 | 0.0122 | 0.45 | 0.0887 | 0.982 | > 5 | 0.627 | 1.55 | 0.713 | 4.64
5 | NCI-H2342 (lung adenocarcinoma, adherent) | 0.986 | > 10 | – | – | – | – | 0.986 | > 1.02 | 0.919 | > 5 | 0.981 | > 20 | 0.822 | 6.65 | 0.977 | > 20 | 0.055 | < 0.002 | 0.927 | > 2 | 0.964 | > 5 | 0.914 | > 10.2 | 0.913 | > 16
6 | SK-MES-1 (lung squamous cell carcinoma, adherent) | 0.944 | > 10 | – | – | – | – | 0.976 | > 1.02 | 0.95 | > 5 | 0.979 | > 20 | 0.823 | 6.61 | 0.985 | > 20 | 0.037 | < 0.002 | 0.762 | 0.774 | 0.978 | > 5 | 0.74 | 3.33 | 0.708 | 4.11
